Measured values taken from the supplement of paper PMC3334620.
Whole data set: some 33,000 sequences, median “E-score (-0.5 to 0.5)” near -0.016, cut for the highest 2% near 0.31. The list shows a part of the results.

molecular target: Cst6 (UniProt P40535); assay: PBM E-score (8-mer binding enrichment) (E-score (-0.5 to 0.5)); higher = stronger / more preferred TF binding; most listed sequences are background and not binding sites; settings: protein concentration: 200 nM; construct: GST-DNA-binding domain
In short: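 Detection of bound protein used fluorescent anti-GST, with scans normalised by masliner. The proteins were GST-tagged yeast transcription factors applied at about 100-200 nM to universal all-10-mer Agilent arrays made double-stranded by primer extension. Each ungapped eight-base word, pooled with its reverse complement, was scored with an E-score from the Universal PBM Analysis Suite.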

Point of comparison: ATGGCAAA, “PBM E-score” value 0.0895. Against it:
- ATAAGCTC — lower, -0.0286
- CGAAACCC — lower, -0.122
- ACACGCTG — lower, 0.0359
- CATAGTTA — lower, 0.041
- ACTTCGCT — lower, 0.0091
- ATAGCCCA — lower, -0.0798
- CCCCGCGA — lower, -0.342
- CCCTGACA — lower, -0.142
- CGGAGGTC — lower, -0.146
- TACAACGA — lower, 0.0528
- CAATTTGA — higher, 0.131
- GAGGACAA — lower, -0.137
- GCTCAGCC — lower, -0.284
- GGGACCAA — lower, -0.116
- CAAACTAA — higher, 0.277
- AAGGATTC — lower, -0.106
- CCTTACAA — lower, -0.0094
- AGTAGTAG — lower, -0.0792
- AATATACT — higher, 0.0947
- ACTTGCCC — lower, -0.215
- GAGGGGCC — lower, -0.32
- CTCCGCCA — lower, -0.196
- CGATCCCG — lower, -0.31
- TATGGTGA — higher, 0.186
- CCGCCACA — lower, -0.196
- CTTTTTCC — lower, 0.0424
- AGATATAT — higher, 0.206
- CGCCAACC — lower, -0.209
- GGTAGAAA — lower, 0.0718
- GCATCTCC — lower, -0.164
- ACACTCTC — lower, -0.0948
- AGCGAAAC — higher, 0.193
- AGGGTATC — lower, -0.0868
- AACACGTC — higher, 0.199
- AACAACCT — lower, -0.0341
- GCAGCTAC — lower, 0.0861
- AAGATTTA — higher, 0.204
- CGCCTAAA — lower, -0.092
- AGGTCAGC — lower, -0.0262
- CCCATGCG — lower, -0.0581
- TATATCAA — higher, 0.206
- ATAGATCG — lower, -0.0649
- CACGCAGC — lower, -0.14
- AATACTTG — higher, 0.176
- AGTACGTC — higher, 0.205
- CAAGTTAG — lower, -0.0811
- CTCTAAAA — higher, 0.156
- GAGTTTCA — lower, -0.0691
- CCACGCGC — lower, -0.238
- CCGTTGTA — lower, 0.0324
- GCGTGTAC — lower, -0.0456
- GATTTCGC — higher, 0.176
- AGTGACCC — lower, -0.164
- ATTGATCA — higher, 0.18
- AATATCGC — lower, 0.0782
- CGCGATTA — higher, 0.184
- CCCAAACA — lower, 0.0193
- AAAATATC — higher, 0.164
- AGAATAAC — lower, 0.024
- CGGTACAA — lower, 0.0379
- AGTCCATG — lower, -0.23
- ACCTGAAC — lower, -0.2
- GCTGATCC — lower, -0.128
- GCCGTCGA — lower, 0.0868
- TCACCCAA — higher, 0.22
- CAACCACC — lower, -0.251
- GGCTCCCA — lower, -0.335
- ATTGCCGC — higher, 0.205
- ATGGAGGG — lower, -0.259
- AAGATGGG — lower, -0.0638
- CGTTCTAA — lower, 0.0559
- GAGGTCGA — lower, -0.119
- GTGGATAA — lower, -0.088
- AAACAACG — lower, 0.0413
- AGGCCTTG — lower, -0.249
- CGGTAGAG — lower, -0.106
- CGGCCCGC — lower, -0.106
- AGGCTGGC — lower, -0.195
- AGAAGCCT — lower, 0.0248
- CGCGAGAG — lower, -0.189
- ACGGAAAA — lower, 0.0205
- AACCGGAC — lower, -0.119
- ATGGTCAC — lower, -0.00469
- AGTCACAT — higher, 0.0935
- TGTGGTAA — higher, 0.142
- CTCACAAC — higher, 0.137
- TAATCGGA — lower, 0.0806
- ATCCTCGA — lower, 0.0819
- CGTTAAGA — higher, 0.144
- AGGCCGCC — lower, -0.161
- ACCGGCCA — lower, -0.268
- GAGATCCC — lower, -0.151
- AATGGATC — lower, 0.00182
- GAGATAAA — lower, 0.0874
- ACCTCAGA — lower, -0.0614
- AGGCAGTG — lower, 0.071
- ACCTCTCG — lower, -0.215
- ATGTAGCG — lower, -0.21
- ATAGAGGA — lower, -0.238
- ACATTCCA — lower, 0.00508
- TGCTTCAA — lower, -0.00788
- ACCTGCCA — lower, -0.179
- GGCTGCAA — lower, -0.0257
- ATCCCAGA — lower, -0.267
- CCACAGAG — lower, -0.098
- TCTATGAA — higher, 0.107
- CCAAAACA — lower, -0.0682
- TCCCGTCA — lower, 0.0641
- CTCCACAG — lower, -0.266
- AATCGAGG — lower, -0.0275
- AATGTCTG — lower, -0.118
- CGCGATGA — higher, 0.29
- AAAACCGA — lower, 0.0246
- AGCAGGGA — lower, -0.264
- ATTAATCA — higher, 0.265
- TCATGACA — higher, 0.392
- CCTGAAGA — lower, -0.0364
- GAACGACC — lower, -0.233
- ATGTACCC — lower, -0.101
- ACAACCAG — lower, 0.0122
- CAAGTGAG — lower, -0.162
- AATAGAGT — lower, -0.0923
- CAATGTAA — higher, 0.213
- TAAAACGA — lower, -0.143
- AGAAGAAC — lower, -0.0619
- CGCATGAA — lower, 0.0343
- AATGTATC — higher, 0.196
- CACACACA — higher, 0.0924
- AGGCACAT — higher, 0.168
- CTACACGA — lower, 0.0631
- AAACATCC — lower, 0.0423
- AACATGAG — lower, 0.015
- CTAACTAG — lower, 0.0585
- GCGTCGAA — lower, 0.079
- CCTGCGAA — lower, -0.0256
- CAGCAGAA — lower, -0.0187
- CCCATCCC — lower, -0.227
- CCTATCCA — lower, -0.217
- CCGGAGCC — lower, -0.15
- ATACGATA — higher, 0.164
- GCCTGGCC — lower, -0.347
- ACCTTGAA — lower, -0.0567
- GACTATGC — lower, -0.0831
- AAGCCTTG — lower, 0.0508
- ACGTAAGT — higher, 0.422
- AAATTACG — higher, 0.336
- ACGAACTG — lower, -0.187
- AGGGATGC — lower, -0.355
- ACTATGAC — higher, 0.264
- ATTTGTCG — higher, 0.132
- AACGTATG — higher, 0.255
- ACCACCCG — lower, -0.156
- TACGGGAA — lower, -0.242
- AGGAGTTA — lower, -0.0453
- CGGGAGAA — lower, -0.177
- CAAGAGGG — lower, -0.189
- ATGGATGA — lower, 0.0833
- ACCTAGTC — lower, -0.16
- AGGGCTAT — lower, -0.315
- TCACATCA — higher, 0.298
- CCTCATGA — higher, 0.175
- GACCACCC — lower, -0.213
- TACACGAA — higher, 0.265
- ATCCGTTG — lower, -0.002
- CAGGATCG — lower, -0.222
- AAAGAGAG — lower, -0.103
- CCCGGAAA — lower, -0.157
- ACTAGCGC — lower, -0.0778
- ACTGGCGA — lower, -0.194
- ACGACATC — higher, 0.12
- CACTACCC — lower, -0.0498
- AATGGAAG — lower, 0.0735
- CTGCCGAA — lower, -0.155
- ACACCGAG — lower, -0.139
- CCTGGAAG — lower, -0.155
- ACTAATCA — lower, 0.0843
- CAATTTCG — lower, 0.0735
- ATAGGGTG — lower, -0.144
- GTTGGATA — lower, 0.0478
- TCATATCA — higher, 0.251
- CCATCCAC — lower, -0.135
- AACTGATC — lower, -0.00933
- CCGCAACG — lower, 0.0443
- ATTATCAA — higher, 0.207
- CTCCGACA — lower, -0.11
- ACTCTTGG — lower, -0.121
- AGGCTCTA — lower, 0.0163
- CCCATCGG — lower, -0.251
- TCAAGAGA — lower, 0.0347
- ATCGCTCC — lower, -0.182
- AGTCATCC — lower, -0.0119
